# Test results taken from PMC9641999, “Cryo-EM samples of gas-phase purified protein assemblies using native electrospray ion-beam deposition” (Faraday discussions, 2022).
# B1: GroEL (natural protein)
# chain: not shown
# notes: GroEL (chaperonin 60), Sigma Aldrich C7688-1MG; native tetradecamer selected by mass; also called chaperonin 60; source: bought: Sigma Aldrich (C7688-1MG), reconstituted from lyophilized powder; desalted into 200 mM ammonium acetate; copies: 14
# Molecular target: the molecule itself
# Assay: native MS; non-activating native electrospray on a Q Exactive UHMR; 200 mM ammonium acetate pH 6.9; 5 μM ADH, 10 μM β-gal, 8 μM ferritin, 5 μM GroEL (concentrations of the most abundant oligomers)
protein,measurement,value
B1,stoichiometry N,14
